The supplement of paper PMC10037445
± gives the standard deviation of the averaged measurements. Over roughly 2,900 compounds, “NF-kB SEAP reporter activity, fold change vs agonist alone” has its median near 0.99; the highest 2% begin near 2.6. The list shows a part of the results.

Assays:
RAW-Dual [1] = assay: NF-kB SEAP reporter activity, fold change vs agonist alone; higher = enhanced NF-kB activity; settings: library stock concentration (final ~1000-fold dilution): 10 mM
Procedure, shortened: (§1)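 Reporter activity is given as fold change relative to agonist-alone wells. To measure it, 50 nL of library stock was pin-tooled onto RAW-Dual macrophages (50,000 cells/well, DMEM, 384-well plates), a PRR agonist followed 1 h later, and cells stayed at 37 °C, 5% CO2. Twenty hours on, supernatant was assayed for IRF (QuantiLuc luminescence) and NF-κB (QuantiBlue, 620 nm absorbance), and wells under 70% of agonist-control IncuCyte confluency in both mask sets were marked cytotoxic.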

RAW-Dual [2] = assay: NF-kB SEAP reporter activity, fold change vs agonist alone; cytotoxicity flag (confluency mask): cytotoxic (confluency <70% of control); higher = enhanced NF-kB activity
Procedure, shortened: as §1

RAW-Dual [3] = assay: NF-kB SEAP reporter activity, fold change vs agonist alone; cytotoxicity flag (confluency mask): not cytotoxic; higher = enhanced NF-kB activity
Procedure, shortened: as §1

[4] = cytotoxicity flag (confluency mask): cytotoxic (confluency <70% of control), agonist: Imiquimod (TLR7) […]
[5] = cytotoxicity flag (confluency mask): cytotoxic (confluency <70% of control), agonist: MPLA (TLR4) […]
[6] = agonist: ODN 1826 (TLR9) 0.5 ug/mL
[7] = agonist: Pam2CSK4 (TLR2/6) 0.1 ug/mL
[8] = agonist: Pam3CSK4 (TLR2/1) 0.1 ug/mL
[9] = cytotoxicity flag (confluency mask): not cytotoxic, agonist: Imiquimod (TLR7) […]
[10] = cytotoxicity flag (confluency mask): not cytotoxic, agonist: MPLA (TLR4) […]

O=[N+]([O-])c1ccc(Sc2cccc[n+]2[O-])c2nonc12
NF-kB SEAP reporter activity (RAW-Dual [1]; [4]): 0.159 | NF-kB SEAP reporter activity (RAW-Dual [1]; [5]): 0.375

O=[N+]([O-])c1ccc(Sc2cccc[n+]2[O-])c2nonc12 (library stock concentration (final ~1000-fold dilution): 10 mM)
NF-kB SEAP reporter activity (RAW-Dual [2]; agonist: LPS (TLR4) 0.1 ug/mL): 0.28 | NF-kB SEAP reporter activity (RAW-Dual [2]; [6]): 0.209 | NF-kB SEAP reporter activity (RAW-Dual [2]; [7]): 0.113 | NF-kB SEAP reporter activity (RAW-Dual [2]; [8]): 0.15

O=C1NC(=O)C(c2cn3c4c(cccc24)CCC3)C1c1c[nH]c2ccccc12 (configuration not stated)
NF-kB SEAP reporter activity (RAW-Dual [1]; [9]): 2.44 | NF-kB SEAP reporter activity (RAW-Dual [1]; [10]): 1.84

O=C1NC(=O)C(c2cn3c4c(cccc24)CCC3)C1c1c[nH]c2ccccc12 (configuration not stated) (library stock concentration (final ~1000-fold dilution): 10 mM)
NF-kB SEAP reporter activity (RAW-Dual [3]; agonist: LPS (TLR4) 0.1 ug/mL): 3.41 | NF-kB SEAP reporter activity (RAW-Dual [3]; [6]): 2.7 | NF-kB SEAP reporter activity (RAW-Dual [3]; [7]): 1.49 | NF-kB SEAP reporter activity (RAW-Dual [3]; [8]): 1.4

NC(=O)c1ccc(I)c([N+](=O)[O-])c1
NF-kB SEAP reporter activity (RAW-Dual [1]; [9]): 0.765 | NF-kB SEAP reporter activity (RAW-Dual [1]; [10]): 0.977

NC(=O)c1ccc(I)c([N+](=O)[O-])c1 (library stock concentration (final ~1000-fold dilution): 10 mM)
NF-kB SEAP reporter activity (RAW-Dual [3]; agonist: LPS (TLR4) 0.1 ug/mL): 0.752 | NF-kB SEAP reporter activity (RAW-Dual [3]; [6]): 0.629 | NF-kB SEAP reporter activity (RAW-Dual [3]; [7]): 0.641 | NF-kB SEAP reporter activity (RAW-Dual [3]; [8]): 0.735

CC(N)C12CC3CC(CC(C3)C1)C2.Cl (configuration not stated)
NF-kB SEAP reporter activity (RAW-Dual [1]; [10]): 1.06

CC(N)C12CC3CC(CC(C3)C1)C2.Cl (configuration not stated) (library stock concentration (final ~1000-fold dilution): 10 mM)
NF-kB SEAP reporter activity (RAW-Dual [3]; agonist: LPS (TLR4) 0.1 ug/mL): 1.15 | NF-kB SEAP reporter activity (RAW-Dual [3]; [6]): 0.619 | NF-kB SEAP reporter activity (RAW-Dual [3]; [7]): 1.24 | NF-kB SEAP reporter activity (RAW-Dual [3]; [8]): 0.847

O=C(NCc1ccccn1)Nc1nnc(-c2ccco2)o1
NF-kB SEAP reporter activity (RAW-Dual [1]; [9]): 0.891 | NF-kB SEAP reporter activity (RAW-Dual [1]; [10]): 0.925

O=C(NCc1ccccn1)Nc1nnc(-c2ccco2)o1 (library stock concentration (final ~1000-fold dilution): 10 mM)
NF-kB SEAP reporter activity (RAW-Dual [3]; agonist: LPS (TLR4) 0.1 ug/mL): 1.08 | NF-kB SEAP reporter activity (RAW-Dual [3]; [6]): 1.13 | NF-kB SEAP reporter activity (RAW-Dual [3]; [7]): 0.952 | NF-kB SEAP reporter activity (RAW-Dual [3]; [8]): 1.05

CCCNC(=O)Nc1ccc(Oc2ncnc3cc(OC)c(OC)cc23)cc1Cl (library stock concentration (final ~1000-fold dilution): 10 mM)
NF-kB SEAP reporter activity (RAW-Dual [3]; agonist: LPS (TLR4) 0.1 ug/mL): 0.912 | NF-kB SEAP reporter activity (RAW-Dual [3]; [6]): 1.12 | NF-kB SEAP reporter activity (RAW-Dual [3]; [7]): 1.07 | NF-kB SEAP reporter activity (RAW-Dual [3]; [8]): 1.12

CCCNC(=O)Nc1ccc(Oc2ncnc3cc(OC)c(OC)cc23)cc1Cl
NF-kB SEAP reporter activity (RAW-Dual [1]; [9]): 0.808 | NF-kB SEAP reporter activity (RAW-Dual [1]; [10]): 1.12

COC1=CC(=O)c2ccccc2C1=O (library stock concentration (final ~1000-fold dilution): 10 mM)
NF-kB SEAP reporter activity (RAW-Dual [2]; agonist: LPS (TLR4) 0.1 ug/mL): 0.216 | NF-kB SEAP reporter activity (RAW-Dual [2]; [6]): 0.239 | NF-kB SEAP reporter activity (RAW-Dual [2]; [7]): 1.77 | NF-kB SEAP reporter activity (RAW-Dual [2]; [8]): 0.178

COC1=CC(=O)c2ccccc2C1=O
NF-kB SEAP reporter activity (RAW-Dual [1]; [4]): 0.54 | NF-kB SEAP reporter activity (RAW-Dual [1]; [5]): 0.297

Cc1cn(-c2cc(NC(=O)c3ccc(C)c(Nc4nccc(-c5cccnc5)n4)c3)cc(C(F)(F)F)c2)cn1 (library stock concentration (final ~1000-fold dilution): 10 mM)
NF-kB SEAP reporter activity (RAW-Dual [3]; agonist: LPS (TLR4) 0.1 ug/mL): 1.22 | NF-kB SEAP reporter activity (RAW-Dual [3]; [6]): 1.95 | NF-kB SEAP reporter activity (RAW-Dual [3]; [7]): 0.91 | NF-kB SEAP reporter activity (RAW-Dual [3]; [8]): 0.881

Cc1cn(-c2cc(NC(=O)c3ccc(C)c(Nc4nccc(-c5cccnc5)n4)c3)cc(C(F)(F)F)c2)cn1
NF-kB SEAP reporter activity (RAW-Dual [1]; [9]): 1.86 | NF-kB SEAP reporter activity (RAW-Dual [1]; [10]): 1.27

CC(C)(C)c1ccc(S(=O)(=O)/C=C/C#N)cc1 (library stock concentration (final ~1000-fold dilution): 10 mM)
NF-kB SEAP reporter activity (RAW-Dual [3]; agonist: LPS (TLR4) 0.1 ug/mL): 0.328 | NF-kB SEAP reporter activity (RAW-Dual [3]; [6]): 0.234 | NF-kB SEAP reporter activity (RAW-Dual [3]; [7]): 0.112 | NF-kB SEAP reporter activity (RAW-Dual [3]; [8]): 0.273 | NF-kB SEAP reporter activity (RAW-Dual [2]; agonist: LPS (TLR4) 0.1 ug/mL): 0.3 ± 0.13 | NF-kB SEAP reporter activity (RAW-Dual [2]; [6]): 0.182 ± 0.0059 | NF-kB SEAP reporter activity (RAW-Dual [2]; [7]): 0.0737 ± 0.012 | NF-kB SEAP reporter activity (RAW-Dual [2]; [8]): 0.154 ± 0.007

CC(C)(C)c1ccc(S(=O)(=O)/C=C/C#N)cc1
NF-kB SEAP reporter activity (RAW-Dual [1]; [4]): 0.143 ± 0.006 | NF-kB SEAP reporter activity (RAW-Dual [1]; [5]): 0.256 ± 0.023 | NF-kB SEAP reporter activity (RAW-Dual [1]; [9]): 0.521 | NF-kB SEAP reporter activity (RAW-Dual [1]; [10]): 0.288

CCNC(=O)C#Cc1ccc2c(c1)NC(=O)/C2=C(\Nc1ccc(CN(C)C)cc1)c1ccccc1 (library stock concentration (final ~1000-fold dilution): 10 mM)
NF-kB SEAP reporter activity (RAW-Dual [2]; agonist: LPS (TLR4) 0.1 ug/mL): 0.241 | NF-kB SEAP reporter activity (RAW-Dual [2]; [6]): 0.173 | NF-kB SEAP reporter activity (RAW-Dual [2]; [7]): 0.074 | NF-kB SEAP reporter activity (RAW-Dual [2]; [8]): 0.121

CCNC(=O)C#Cc1ccc2c(c1)NC(=O)/C2=C(\Nc1ccc(CN(C)C)cc1)c1ccccc1
NF-kB SEAP reporter activity (RAW-Dual [1]; [4]): 0.134 | NF-kB SEAP reporter activity (RAW-Dual [1]; [5]): 0.297

Cc1cc(N2CCOCC2)ccc1Nc1nc(NC2CCCCC2)c2nc[nH]c2n1 (library stock concentration (final ~1000-fold dilution): 10 mM)
NF-kB SEAP reporter activity (RAW-Dual [3]; agonist: LPS (TLR4) 0.1 ug/mL): 1.44 | NF-kB SEAP reporter activity (RAW-Dual [3]; [6]): 0.814 | NF-kB SEAP reporter activity (RAW-Dual [3]; [7]): 1 | NF-kB SEAP reporter activity (RAW-Dual [3]; [8]): 0.926

Cc1cc(N2CCOCC2)ccc1Nc1nc(NC2CCCCC2)c2nc[nH]c2n1
NF-kB SEAP reporter activity (RAW-Dual [1]; [9]): 0.925 | NF-kB SEAP reporter activity (RAW-Dual [1]; [10]): 1.04

COc1ccc(-c2nc(-c3cc(C(F)(F)F)cc(C(F)(F)F)c3)n(Cc3ccc(C(N)=O)cc3)c2-c2ccc(OC)cc2)cc1
NF-kB SEAP reporter activity (RAW-Dual [1]; [9]): 0.356 | NF-kB SEAP reporter activity (RAW-Dual [1]; [10]): 0.734

COc1ccc(-c2nc(-c3cc(C(F)(F)F)cc(C(F)(F)F)c3)n(Cc3ccc(C(N)=O)cc3)c2-c2ccc(OC)cc2)cc1 (library stock concentration (final ~1000-fold dilution): 10 mM)
NF-kB SEAP reporter activity (RAW-Dual [3]; agonist: LPS (TLR4) 0.1 ug/mL): 0.925 | NF-kB SEAP reporter activity (RAW-Dual [3]; [6]): 0.356 | NF-kB SEAP reporter activity (RAW-Dual [3]; [7]): 0.168 | NF-kB SEAP reporter activity (RAW-Dual [3]; [8]): 0.127
